# Measured values published in US20040175357A1 (Bayer, published 2004).
# T1: high affinity IL-2 receptor IL-2Rαβγ on human PHA-blasts (activated T cells) (human, UniProt P01589 22-272; P14784 27-551; P31785 23-369)
# T1 sequence (looked up) 1: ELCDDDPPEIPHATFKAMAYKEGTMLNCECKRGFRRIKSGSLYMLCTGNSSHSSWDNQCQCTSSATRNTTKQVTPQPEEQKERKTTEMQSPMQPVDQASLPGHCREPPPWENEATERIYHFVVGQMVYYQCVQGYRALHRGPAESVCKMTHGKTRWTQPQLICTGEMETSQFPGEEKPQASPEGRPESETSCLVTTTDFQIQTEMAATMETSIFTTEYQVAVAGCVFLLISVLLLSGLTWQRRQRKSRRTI
# T1 sequence (looked up) 2: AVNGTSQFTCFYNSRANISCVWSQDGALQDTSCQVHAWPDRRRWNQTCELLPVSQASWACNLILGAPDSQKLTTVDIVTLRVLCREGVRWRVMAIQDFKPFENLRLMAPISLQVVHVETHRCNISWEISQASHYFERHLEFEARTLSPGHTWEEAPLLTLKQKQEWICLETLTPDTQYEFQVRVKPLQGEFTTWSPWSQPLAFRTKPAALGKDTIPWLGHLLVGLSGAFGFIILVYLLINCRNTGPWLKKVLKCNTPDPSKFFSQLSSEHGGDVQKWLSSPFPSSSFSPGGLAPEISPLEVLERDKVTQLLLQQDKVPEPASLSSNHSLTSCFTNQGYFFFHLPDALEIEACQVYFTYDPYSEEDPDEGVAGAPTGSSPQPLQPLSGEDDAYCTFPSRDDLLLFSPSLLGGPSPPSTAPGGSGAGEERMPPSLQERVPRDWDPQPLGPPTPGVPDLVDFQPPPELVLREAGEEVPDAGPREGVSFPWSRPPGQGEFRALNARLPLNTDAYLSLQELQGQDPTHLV
# T1 sequence (looked up) 3: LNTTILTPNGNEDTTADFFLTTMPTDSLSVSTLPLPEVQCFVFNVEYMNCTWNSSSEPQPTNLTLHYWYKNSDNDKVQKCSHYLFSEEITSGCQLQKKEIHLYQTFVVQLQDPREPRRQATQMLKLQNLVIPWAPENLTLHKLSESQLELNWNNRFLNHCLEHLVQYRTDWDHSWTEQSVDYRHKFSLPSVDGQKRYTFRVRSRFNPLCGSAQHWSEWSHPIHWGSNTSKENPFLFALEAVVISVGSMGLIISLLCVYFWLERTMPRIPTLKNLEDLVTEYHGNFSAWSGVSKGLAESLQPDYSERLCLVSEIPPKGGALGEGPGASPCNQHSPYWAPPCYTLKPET
# T2: intermediate affinity IL-2 receptor IL-2Rβγ on human NK cells (human, UniProt P14784 27-551; P31785 23-369)
# T2 sequence (looked up) 1: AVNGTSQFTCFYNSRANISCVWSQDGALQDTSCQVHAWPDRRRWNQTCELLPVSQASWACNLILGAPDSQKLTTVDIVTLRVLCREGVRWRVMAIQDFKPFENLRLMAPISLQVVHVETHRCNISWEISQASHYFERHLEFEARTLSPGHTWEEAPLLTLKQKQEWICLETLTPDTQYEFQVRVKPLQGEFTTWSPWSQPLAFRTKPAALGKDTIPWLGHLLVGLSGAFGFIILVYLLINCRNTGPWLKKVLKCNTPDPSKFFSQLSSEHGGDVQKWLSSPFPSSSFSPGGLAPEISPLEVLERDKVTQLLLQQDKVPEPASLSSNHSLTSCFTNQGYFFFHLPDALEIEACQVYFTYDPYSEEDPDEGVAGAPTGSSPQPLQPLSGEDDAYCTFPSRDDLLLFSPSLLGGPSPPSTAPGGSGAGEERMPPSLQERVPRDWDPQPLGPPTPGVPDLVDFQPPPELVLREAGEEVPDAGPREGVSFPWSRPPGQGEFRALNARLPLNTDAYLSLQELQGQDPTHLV
# T2 sequence (looked up) 2: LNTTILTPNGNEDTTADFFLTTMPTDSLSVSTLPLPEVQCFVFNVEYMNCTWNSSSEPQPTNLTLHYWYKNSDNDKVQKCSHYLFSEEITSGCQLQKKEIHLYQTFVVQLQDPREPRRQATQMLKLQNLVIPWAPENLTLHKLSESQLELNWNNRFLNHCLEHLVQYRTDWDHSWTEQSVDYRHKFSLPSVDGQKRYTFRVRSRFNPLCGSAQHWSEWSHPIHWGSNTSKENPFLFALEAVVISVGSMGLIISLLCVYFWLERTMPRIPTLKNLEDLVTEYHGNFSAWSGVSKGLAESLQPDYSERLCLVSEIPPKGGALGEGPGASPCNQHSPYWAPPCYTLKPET
# Experiments:
# Assay in all cases: cell-based or functional assay
# [1] = target: T1, high affinity IL-2 receptor IL-2Rαβγ on …
# [2] = target: T2, intermediate affinity IL-2 receptor …
# [3] = target: T1, high affinity IL-2 receptor IL-2Rαβγ on …; remark: listed apart in the source
# [4] = target: T2, intermediate affinity IL-2 receptor …; remark: listed apart in the source
Binder,"EC50, 50% maximal proliferation, T cell assay (FIG. 1A) [1] [nM]","EC50, 50% maximal proliferation, T cell assay (FIG. 5A) [1] [nM]","EC50, 50% maximal proliferation, NK cell assay (FIG. 1B) [2] [nM]","EC50, 50% maximal proliferation, NK cell assay (FIG. 5B) [2] [nM]","relative activity, T cell (PHA-blast proliferation) [3]","relative activity, NK cell (NK cell proliferation) [4]"
wild-type human IL-2 (ligand) not shown,~0.15,~0.15,~0.1,~0.1,1 relative to wt IL-2 (EC50),1 relative to wt IL-2 (EC50)
human IL-2 mutein D20K (ligand) not shown,–,–,–,–,0.063 relative to wt IL-2 (EC50),0.00019 relative to wt IL-2 (EC50)
human IL-2 mutein D20H (ligand) not shown,~0.2,–,> 10000,–,0.371 relative to wt IL-2 (EC50),9e-05 relative to wt IL-2 (EC50)
human IL-2 mutein D20L (ligand) not shown,–,–,–,–,0.00063 relative to wt IL-2 (EC50),1e-05 relative to wt IL-2 (EC50)
human IL-2 mutein D20M (ligand) not shown,–,–,–,–,0.0537 relative to wt IL-2 (EC50),0.00011 relative to wt IL-2 (EC50)
human IL-2 mutein D20N (ligand) not shown,–,–,–,–,0.03 relative to wt IL-2 (EC50),0.00019 relative to wt IL-2 (EC50)
human IL-2 mutein D20Q (ligand) not shown,–,–,–,–,0.0318 relative to wt IL-2 (EC50),0.00032 relative to wt IL-2 (EC50)
human IL-2 mutein D20R (ligand) not shown,–,–,–,–,0.00018 relative to wt IL-2 (EC50),1e-05 relative to wt IL-2 (EC50)
human IL-2 mutein D20S (ligand) not shown,–,–,–,–,0.0664 relative to wt IL-2 (EC50),0.00038 relative to wt IL-2 (EC50)
human IL-2 mutein D20T (ligand) not shown,–,–,–,–,1 relative to wt IL-2 (EC50),1 relative to wt IL-2 (EC50)
human IL-2 mutein D20V (ligand) not shown,–,–,–,–,0.00093 relative to wt IL-2 (EC50),9e-05 relative to wt IL-2 (EC50)
human IL-2 mutein D20Y (ligand) not shown,–,–,–,–,0.0659 relative to wt IL-2 (EC50),7e-05 relative to wt IL-2 (EC50)
human IL-2 mutein N88A (ligand) not shown,–,–,–,–,0.5 relative to wt IL-2 (EC50),0.01 relative to wt IL-2 (EC50)
human IL-2 mutein D20A (ligand) not shown,–,–,–,–,0.00024 relative to wt IL-2 (EC50),5e-05 relative to wt IL-2 (EC50)
human IL-2 mutein N88E (ligand) not shown,–,–,–,–,0.0117 relative to wt IL-2 (EC50),0.00115 relative to wt IL-2 (EC50)
human IL-2 mutein N88F (ligand) not shown,–,–,–,–,0.0222 relative to wt IL-2 (EC50),0.001 relative to wt IL-2 (EC50)
human IL-2 mutein N88H (ligand) not shown,–,–,–,–,0.001 relative to wt IL-2 (EC50),0.001 relative to wt IL-2 (EC50)
human IL-2 mutein N88K (ligand) not shown,–,–,–,–,0.0001 relative to wt IL-2 (EC50),0.00032 relative to wt IL-2 (EC50)
human IL-2 mutein N88L (ligand) not shown,–,–,–,–,0.004 relative to wt IL-2 (EC50),0.001 relative to wt IL-2 (EC50)
human IL-2 mutein N88M (ligand) not shown,–,–,–,–,0.25 relative to wt IL-2 (EC50),0.001 relative to wt IL-2 (EC50)
